According to the supplement of paper PMC10126150:
Values marked as one replicate rest on one cluster of the flow cell; about a third of the high ones do not repeat.

Each sequence was assayed on ATP (assay: switch fluorescence ratio, 500 uM ATP over buffer (Cy3 cluster intensity, sum of 5 cycles each) (fold (ratio)); higher = stronger signal-on switching upon ATP binding; sequences stand for … in TCGTCGGCAGCGTCAGATGTGTATAAGAGACAGTTTTTTTTTTTTTTTTTTTTTTTTT…TC). Conditions: aptamer strand: ATP DNA aptamer (quencher-CACCTGGGGGAGTATTGCGGAGGAAGG + anchor), 100 nM annealed; ATP concentration: 500 uM; one replicate.
How it was run: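 Exposure to 500 uM ATP lasted 15 min at 22 °C before imaging, and a selection-buffer image was taken beforehand, for Cy3-labelled switching-strand clusters on a modified Illumina MiSeq flow-cell annealed to 100 nM quencher-labelled ATP aptamer. Five buffer/ATP cycles were run with NaOH stripping and re-annealing between them. The fluorescence ratio per cluster is summed target-cycle over summed buffer-cycle Cy3 intensity, averaged per switch-domain sequence. Clusters outside 100-1000 RFU were excluded.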

Row | Sequence | switch fluorescence ratio
1 | CGTACGCGAA | 1.26
2 | CGTACGGAA | 1.17
3 | CGTACGGATT | 0.975
4 | CGTACGTAAC | 1.56
5 | CGTACTGCGG | 1.08
6 | CGTACTGGAC | 1.17
7 | CGTACTGGGA | 1.01
8 | CGTAGAATAA | 0.957
9 | CGTAGCCTGT | 0.979
10 | CGTAGCGTTA | 1.54
11 | CGTAGGCGCA | 1
12 | CGTAGGCTTG | 1.08
13 | CGTAGGTTGG | 1.02
14 | CGTAGTCGAG | 1.01
15 | CGTAGTCGT | 1.02
16 | CGTAGTTCTA | 1.05
17 | CGTATAATGA | 1.01
18 | CGTATAATGG | 0.926
19 | CGTATAGAGC | 0.967
20 | CGTATAGTTG | 1.03
21 | CGTATATTGA | 1.01
22 | CGTATCAGAA | 1.02
23 | CGTATCATG | 1.05
24 | CGTATCCTTT | 0.969
25 | CGTATGCTGA | 0.939
26 | CGTATGTAG | 0.964

Row | Sequence | switch fluorescence ratio
27 | CGTATTATAT | 1
28 | CGTATTGGTC | 1.01
29 | CGTATTGTT | 0.981
30 | CGTCAAGGCT | 1.04
31 | CGTCAATAGG | 1.49
32 | CGTCAATATG | 1.68
33 | CGTCAATCGC | 2.05
34 | CGTCACTTGA | 0.991
35 | CGTCAGAACT | 1.02
36 | CGTCAGAGG | 1
37 | CGTCAGGACC | 1.13
38 | CGTCAGGTAC | 1.7
39 | CGTCAGGTTT | 3.66
40 | CGTCATTCGA | 0.956
41 | CGTCCATGGG | 0.952
42 | CGTCCCGGCG | 1.02
43 | CGTCCGACTG | 1.59
44 | CGTCCTTACA | 1.06
45 | CGTCGACCCG | 0.992
46 | CGTCGATAGG | 1
47 | CGTCGCACGC | 1.8
48 | CGTCGGATG | 1.03
49 | CGTCGGCGCT | 1.03
50 | CGTCGGTGGT | 0.943
51 | CGTCGGTTCG | 1.02
52 | CGTCGTACGG | 1.01

Row | Sequence | switch fluorescence ratio
53 | CGTCGTACTT | 1.03
54 | CGTCGTATT | 0.958
55 | CGTCGTTACG | 0.992
56 | CGTCGTTGAA | 1.08
57 | CGTCGTTTGA | 1.09
58 | CGTCGTTTGT | 0.968
59 | CGTCTCGC | 1.1
60 | CGTCTGACAA | 1.77
61 | CGTCTGAGTT | 1
62 | CGTCTTATAT | 0.994
63 | CGTCTTGTG | 1
64 | CGTGAAAGAA | 0.962
65 | CGTGAATCA | 1
66 | CGTGACAGCG | 0.978
67 | CGTGACGCGG | 0.977
68 | CGTGACTTGG | 0.988
69 | CGTGAGCGG | 1.02
70 | CGTGATAGCG | 1.04
71 | CGTGATTCTG | 1.02
72 | CGTGCATGC | 1.2
73 | CGTGCGGAAC | 1.24
74 | CGTGCTCTGT | 1.01
75 | CGTGCTGCTG | 0.908
76 | CGTGCTTTCG | 0.958
77 | CGTGGACCCC | 1.04
78 | CGTGGCCAAT | 0.992

Row | Sequence | switch fluorescence ratio
79 | CGTGGCGCTG | 0.983
80 | CGTGGCTGTT | 0.972
81 | CGTGGGAAGG | 1.02
82 | CGTGGGTAGT | 1.06
83 | CGTGGGTGCG | 1
84 | CGTGGTGGTC | 1.01
85 | CGTGTATCGG | 0.995
86 | CGTGTATCTG | 1.03
87 | CGTGTCGGGC | 0.987
88 | CGTGTCGGTT | 0.986
89 | CGTGTCTATA | 1.05
90 | CGTGTGCGTG | 0.996
91 | CGTGTGTGT | 0.998
92 | CGTGTTAAGT | 0.985
93 | CGTGTTATAA | 0.957
94 | CGTGTTCGGT | 0.996
95 | CGTGTTGCCT | 0.998
96 | CGTGTTGTCG | 1.05
97 | CGTGTTTTC | 1.04
98 | CGTTAAGAGA | 1.08
99 | CGTTACGCAG | 1.02
100 | CGTTACGGTA | 1.12
101 | CGTTACGTCA | 1.05
102 | CGTTATCAGA | 0.997
103 | CGTTATCGGC | 0.966
104 | CGTTATCGGG | 0.989

Row | Sequence | switch fluorescence ratio
105 | CGTTATTATT | 1.01
106 | CGTTCAGCG | 1.06
107 | CGTTCAGGTT | 1.05
108 | CGTTCAGTTA | 1.02
109 | CGTTCATGTC | 1.1
110 | CGTTCCCCGT | 1.3
111 | CGTTCCGTGT | 0.953
112 | CGTTCCGTTG | 1.05
113 | CGTTCCTACT | 1.05
114 | CGTTCGCACG | 1.11
115 | CGTTCGCGTC | 1.13
116 | CGTTCGTCTA | 1.07
117 | CGTTCGTGAC | 1.38
118 | CGTTCTTTCA | 0.988
119 | CGTTGAATCC | 1.03
120 | CGTTGACCAC | 1.04
121 | CGTTGAGAAC | 0.981
122 | CGTTGAGGTC | 1.06
123 | CGTTGCACGC | 1.06
124 | CGTTGCATAG | 1.12
125 | CGTTGCATTC | 1.37
126 | CGTTGGGAT | 1
127 | CGTTGGTGCA | 1.05
128 | CGTTGTGCAG | 0.958
129 | CGTTGTTTGC | 1.02
130 | CGTTTAAAAA | 0.872

Row | Sequence | switch fluorescence ratio
131 | CGTTTACTTG | 1.03
132 | CGTTTAGCGG | 1
133 | CGTTTCTGTC | 1.01
134 | CGTTTGAATC | 1.02
135 | CGTTTGGACT | 0.978
136 | CGTTTTGTAC | 1.08
137 | CGTTTTTATC | 0.981
138 | CGTTTTTGAC | 1.01
139 | CTAAAAATGA | 0.972
140 | CTAAAATGGG | 1.02
141 | CTAAACAAAA | 1.04
142 | CTAAACACCA | 1.02
143 | CTAAACAGCT | 0.971
144 | CTAAACGCTA | 1.62
145 | CTAAAGAACG | 0.999
146 | CTAAAGACCG | 1.01
147 | CTAAAGACGG | 1.04
148 | CTAAAGGCTT | 0.962
149 | CTAAAGGGAA | 1.01
150 | CTAAAGTAAA | 0.998
151 | CTAAAGTAGA | 1
152 | CTAAAGTCTG | 0.957
153 | CTAAAGTGCA | 0.98
154 | CTAAATCCTG | 0.962
155 | CTAACGCCCG | 1.07
156 | CTAACGGAGA | 1

Row | Sequence | switch fluorescence ratio
157 | CTAACGTGAA | 1.08
158 | CTAACTTT | 1.02
159 | CTAAGCGACG | 1.06
160 | CTAAGGAACA | 1.03
161 | CTAAGGGACG | 1.05
162 | CTAAGGTGTG | 0.993
163 | CTAAGTGATC | 1.13
164 | CTAAGTGGAT | 0.958
165 | CTAATAATTT | 0.991
166 | CTAATATTTT | 0.971
167 | CTAATCTTGG | 1.02
168 | CTAATGAAGT | 1.03
169 | CTAATTTCGG | 0.975
170 | CTACAACTTA | 1
171 | CTACACACGC | 1.5
172 | CTACACTCCT | 1.08
173 | CTACCTATCC | 1.81
174 | CTACGAGGCT | 1.11
175 | CTACGCCCCG | 1.08
176 | CTACGTTGAT | 1.13
177 | CTACTAGCGG | 1.01
178 | CTACTAGGGT | 1
179 | CTACTCGTGC | 0.971
180 | CTACTGCTGA | 0.978
181 | CTACTTATGT | 1.01
182 | CTAGAAGTTG | 0.998

Row | Sequence | switch fluorescence ratio
183 | CTAGAATCGT | 1.02
184 | CTAGAATTTC | 0.973
185 | CTAGACGCTC | 1.17
186 | CTAGATCGT | 1
187 | CTAGATGGGG | 1.03
188 | CTAGATTGTA | 0.993
189 | CTAGCCCGCG | 0.933
190 | CTAGCCCTAC | 1.6
191 | CTAGCTGCCC | 1.1
192 | CTAGCTTAGA | 0.971
193 | CTAGGCCGG | 1.03
194 | CTAGGCGGCC | 0.971
195 | CTAGGGAGTG | 0.977
196 | CTAGGGCATT | 0.985
197 | CTAGGGGGAA | 1.02
198 | CTAGGGTCTT | 0.96
199 | CTAGGTATGC | 1.03
200 | CTAGGTTGCG | 0.975
201 | CTAGTGAGGG | 0.995
